SMILES strings stand for the structures. About 540 (0.36%) of roughly 150,000 compounds showed an effect of 50% or more. The list shows a part of the results.

The test system of this experiment is Plasmodium falciparum. The experiment is described as follows: Primary screen in NF54 nanoGlo assay, in single point, at 2uM, 72h; a lower Z score goes with more inhibition. The following applies: timepoint 72 hour. The format is functional, Erythrocyte.
Usually % Inhibition stands for the change of the read-out against control, counted positive when it falls. Consider `O=C(Cn1cnnn1)N1CCC(F)(F)C1`, for which the “% Inhibition” value was -19% and the Z score is listed as 2.6.

`COc1ccc([C@@H]2Cn3nnc(C(=O)N4CCC(C(=O)NCC5CCCCC5)CC4)c3CO2)cc1`: the “% Inhibition” value is given as -13% and the Z score worked out at 2.06.

As to `CC1CCC(NC(=O)Cn2c3c(c(-c4ccccc4Cl)cc2=O)CCC3)CC1` (stereo unspecified), the “% Inhibition” value was -10% and the Z score is recorded as 1.55.

As to `COc1ccc(F)cc1S(=O)(=O)N1C2C=CCC1CC2` (stereo unspecified), the “% Inhibition” value was -9% and the Z score is reported as 1.09.

For `CCCN1CCC(N2CCN(S(=O)(=O)c3ccc(F)cc3)CC2)CC1`, the “% Inhibition” value is -10% and the Z score stood at 1.25.

`CC(C)n1cnnc1CCNC(=O)CCc1csc(N)n1`: the “% Inhibition” value is recorded as -9% and the Z score worked out at 1.56.

For `CCc1onc(C)c1C(=O)NCc1cnc(CC(C)C)s1`, the “% Inhibition” value came out at 1% and the Z score is listed as -0.09.

`COc1cc(NC(=O)N2Cc3cn[nH]c3CC(C)(C)C2)c(C)c(OC)c1`: the “% Inhibition” value is given as 13% and the Z score is on record as -1.52.

As for `Cn1cccc(C(=O)N2CCC(n3nccn3)CC2)c1=O`, the “% Inhibition” value is reported as 21% and the Z score was -2.39.

Take `CC[C@H](C)N(CC(=O)N(Cc1ccccc1)Cc1sccc1C)C(=O)Cc1ccc(F)cc1`: the “% Inhibition” value is given as -8% and the Z score came to 0.87.

Consider `Nc1nc(Cn2cc(Oc3ccccc3)c(=O)c(C(=O)O)c2)cs1`, for which the “% Inhibition” value is on record as -2% and the Z score stood at 0.37.

`Cc1cc(C)cc(C(=O)Nc2cccc(-c3noc(C4CC4)n3)c2)c1`: the “% Inhibition” value is reported as -17% and the Z score came to 2.88.

Turning to `CCOC(=O)c1nc(CC(=O)Nc2cc(C)on2)no1`, the “% Inhibition” value is listed as -5% and the Z score is 0.7.

Turning to `CCc1ccnc(C(=O)N2CC(CF)C2)c1`, the “% Inhibition” value is -12% and the Z score is reported as 1.67.

Turning to `CN(C)c1ccc(C(=O)N2CCC(F)(F)CC2)nn1`, the “% Inhibition” value is -7% and the Z score is reported as 0.95.

As for `O=C(NCCn1cnccc1=O)c1ccccc1C1CCC1`, the “% Inhibition” value was found to be 2% and the Z score was -0.34.

For `CCS(=O)(=O)N(C)C1CCN(C(=O)CC[C@H](O)c2ccc(C(C)(C)C)cc2)CC1`, the “% Inhibition” value is recorded as -6% and the Z score was found to be 1.08.

With `Cc1c(C(=O)NCCN(C)C2CCCCC2)oc2ccc3c(c12)[C@@H](O)CC1(CCCCC1)O3`, the “% Inhibition” value was determined as 6% and the Z score was -0.72.

In the case of `CCc1nc2onc(C)c2c(=O)n1CC(=O)NCc1ccc(OC)cc1OC`, the “% Inhibition” value was -9% and the Z score was determined as 1.29.

With `COc1ccc(CNC(=O)C[C@@H]2C[C@H]3O[C@H](CNC4CCC[C@@H](C)C4)[C@@H](O)[C@H]3O2)cc1` (stereo partly specified), the “% Inhibition” value came out at 2% and the Z score is on record as -0.19.

With `COc1ncccc1NC(=O)OCC(F)(F)F`, the “% Inhibition” value was -9% and the Z score worked out at 1.17.

For the compound `O=S(=O)(c1cnc2n1CCC2)N1CCOc2c1ccc(F)c2F`, the “% Inhibition” value was -14% and the Z score is on record as 2.21.

As for `C[C@@H](C(N)=O)N1CCN(Cc2cccc3[nH]ccc23)CC1`, the “% Inhibition” value is -5% and the Z score was 0.55.

Take `Cc1cccc2c1cc(C(=O)N1CC=C[C@H]1C(=O)O)n2C`: the “% Inhibition” value was -9% and the Z score is 1.61.

As for `CC(=O)N1CCN(C2CN(Cc3ccncc3Cl)CC2C)CC1` (stereo unspecified), the “% Inhibition” value is reported as -9% and the Z score amounted to 0.93.

Regarding `COc1cccc2ncn([C@@H](C)c3nnc(N)s3)c(=O)c12`, the “% Inhibition” value is given as -11% and the Z score amounted to 1.62.

`CS(=O)(=O)NCCCNc1ccc(Br)cc1C#N`: the “% Inhibition” value was -12% and the Z score is 1.66.

Consider `O=C(NCc1ccccc1)c1ncoc1-c1ccco1`, for which the “% Inhibition” value is recorded as -13% and the Z score came out at 1.3.

As to `CN(CCN1CCCC1=O)Cc1ccc(C#N)cc1Br`, the “% Inhibition” value came to 0% and the Z score is on record as -0.01.

`Cc1cc(N(C)C(=O)[C@H]2C[C@@H]2C(F)F)ccc1O`: the “% Inhibition” value came out at 13% and the Z score is listed as -1.3.

Turning to `Cc1nc(-c2ccccc2)c(C(=O)N2CCC[C@H](c3nc4ccccc4s3)C2)s1`, the “% Inhibition” value was -8% and the Z score stood at 1.5.

Take `Cc1cc(=O)n(CCN2CCCC[C@H]2c2nc3ccccc3[nH]2)c(=O)[nH]1`: the “% Inhibition” value is given as -2% and the Z score came to 0.28.

In the case of `CN(Cc1cn(-c2ccc(Cl)cc2Cl)nn1)C[C@H]1CCCOC1`, the “% Inhibition” value was found to be 3% and the Z score is recorded as -0.59.

Regarding `CC(=O)N(c1nc(CN(CCC#N)C(C)(C)C)cs1)C1CC1`, the “% Inhibition” value stood at 6% and the Z score is -1.14.

With `CC(C)COc1ccccc1CN(C)Cc1nnc([C@H]2C[C@@H](N)C2)n1C`, the “% Inhibition” value is reported as 7% and the Z score is -0.78.

Take `COc1ccc(-c2ncc(C(=O)N3CCC(C)CC3)c(N(C)Cc3ccccc3)n2)cc1`: the “% Inhibition” value was -2% and the Z score is given as 0.2.

`C[C@H]1CN(C2CCOCC2)CCN1C(=O)c1ccc2[nH]c3c(c2c1)CCCC3`: the “% Inhibition” value is reported as -2% and the Z score is on record as 0.29.

In the case of `COc1cc(C#N)cc(OC)c1OC(C)C`, the “% Inhibition” value was 12% and the Z score was -1.53.

Take `c1nc(N2CC[C@]3(CCOC3)C2)c2[nH]cnc2n1`: the “% Inhibition” value is -5% and the Z score stood at 0.52.

Consider `COc1ccc(N2CCN(CN3C(=O)NC4(CCCCCCC4)C3=O)CC2)cc1`, for which the “% Inhibition” value was -9% and the Z score was 1.61.

For `Cc1nnc([C@H](C)N(C)CCc2ccncc2)o1`, the “% Inhibition” value was 0% and the Z score is listed as -0.04.

Take `CCN(CC(=O)N1CCCS1(=O)=O)c1ccccc1`: the “% Inhibition” value is -8% and the Z score is given as 0.82.

`CCC(=O)N1CCC2(CC1)OC[C@@H](C(=O)NCc1cccc(C(F)(F)F)c1)N2C(=O)c1ccccc1C`: the “% Inhibition” value was found to be 9% and the Z score is given as -1.

The record behind these values is ChEMBL document CHEMBL4888484, “Replenishing the malaria drug discovery pipeline: Screening and hit evaluation of the MMV Hit Generation Library 1 (HGL1) against asexual blood stage Plasmodium falciparum ,using a nano luciferase reporter read-out” (2022).
